# The source gives no read counts; variants with many changes may rest on few reads.
# B1: LINE1-full (parent)
# chain: UACGUAGGUGGUUUUCCCCUGAUAGUGCUAAGGGGGCCUGGAAGUUUGGACUGGGCAGAGCUCAACACAGCGUGGCAAAGUGGCUGUGGCUAGACUGCCUCUCUGGAUUCCUCGUCACUCAGCAGGGCAUCUCUGAGAGAAAUGCC
# Variants of: B1
# Assay: self-cleavage, relative activity (ratio to wild type); higher = more cleavage; in vitro, sequencing; the parent is a self-cleaving ribozyme
row,Variant,self-cleavage
1,UACGUAGGUGGUUUUCCCCUGAUAGUGCUAAGGGGGCCUGGAAGUUUGGACUGGGCAGAGCUCAACACAGCGUGGCAAAGUGGCUGUGGCUAGUCUGCCUCUCUGGAUUCCUCGCCACUCAGUAGGGAGUCUCUGAGAGAAAUACC,0.51
2,UACGUAGGUGGUUCUCCCCUGAUAGUGCUAAGGGGGCCUGGAAGUUUGGACUGGGCAGAGCUCAACACAGCGUGGCAAAGUGGCUGUGGCUAGACUGCCUCUCUGGAUUCCUCGUCACCCAGCAGGGCAUCUCUGAGAGGAAUGCC,1.2
3,UACGUAGGUGGCUUUCCCCUGAUAGUGCUAAGGGGGCCUGGAAGUUUGGACUGGGCAGAGCUCAACACAGCGUGGCAAAGUGGCUGUGGCUAGGCUGCCUCUCUGGAUUCCUCGUCACUCAGCAGGGCAUCUCUGAGAGGAAUGCC,0.15
4,UACGUAGGUGGUUUUCCCCUGAUAGUGCCAAGGGGGCCUGGAAGUUUGGACUGGGCAGAGCUCAACACAGCGUGGCAAAGUGGCUGCGGCUAGACUGCCUCUCUGGAUUCCUCGUCACCCAGCAGGGCAUCUCUGAGAGAAAUGCC,0
5,UACGUAGGUGGUUUUCCCCUGAUAGUGCUAAGGGGGCCUGGAGGUUUGGACUGGGCAGAGCUCAACACAGCGUGGCAAAGUGGCUGUGGCUAGACAGCCUCUCUGGAUUCCCCGUCACUCAACAGGGCAACUCUGAGAGAAAUGCC,0.04
6,UACGUAGGUGGUUUUCCCCUGAUAGUGCUAAGGGGGCCUGGAAGCUUGGACUGGGCAGAGCUCAUCACAGCGUGGCAAAGUGGCUGUGGUUAGACUGCCUCUCUGGAUUCCUCGUCACUCAGCAGGGCAUCUCUGAGAGAAAUGCC,0.01
7,UACGUAGGUGGUUUUCUCCUGAUAGUGCUAAGGGGGCCUGGAAGUUAGGACUGGGCAGAGCUCAACACAGCGUGGCAAAGUGGCUGUGGCUAGACUGCCUCUCUGGACUCCUCGUCACUCAGCAGGGCAUCUCUGAGAGAAAUGCC,0.76
8,UACGUAGGUGGUUUUCCCCUGAUAGUGCUAAGGGGGCCUGGAAGUUUGGACUGGGCAGAGCUCAACACAGCGUGGCAAAGUGGCCGUGGCUAGACUGCCUCCCUGGAUUCCUCGUCACUCAGCAGGGCAUCUCCGAGAGAAAUGCC,0
9,UACGUAGGUGGUUUUCCCCUGAUAGUGCUAAGGGGGCCCGGAAGUUUGGACUGGGCAGAGCCCAACACAGCGUGGCAAAGUGGCUGUGGCUAGACUGCUUCUCUGGAUUCCUCGUCACUCAGCAGGGCAUCUCUGAGAGAAAUGCC,0.02
10,UACGUAGGUGGUUUUCCCCUGAUAGUGCUAAGGGGGCCUGGAAGUUUGGACUGGGCAGAGCUCAACACAGCGUGGCAAAGUGGCUGUGGCUAGACUGCCUCUCUGGAUUCCUCGUAACUCAGCAGGGCAUCUCUGGGGGAAAUGCC,2.01
11,UACGUAGGUGGUUUUCCCAUGAUAGUGCUAAGGGGGCCUGGAAGUUUGGACUGGGCAGAGCUCAACACAGCGUGGCAAAGUGGCUGUGGCUAGACCGCCUCUCUGGAUUCCUCGUCACUCAGCAGGGCAUCUCUGAGAGAAAUACC,0.35
12,UACGUAGGUGGCUUUCCCCUGGUAGUGCUAAGGGGGCCUGGAAGUUUGGACUGGGCAGAGCUCAACACAGCGUGGCAAGGUGGCUGUGGCUAGACUGCCUCUCUGGAUUCCUCGUCACUCAGCAGGGCAUCUCAGAGAGAAAUGCC,0.95
13,UACGUAGGUGGUUUUCCCCUGAUAGUGCUAAGGGGGCCUGGAAGUUUGGACUGGGCGGAGCUCAACACAGCGUGGCAAAGUGGCUGAGGCUAGACAGCCUCUCUGGAUUCCUCGUCUCUCAGCAGGGCAUCUCUGAGAGAAAUGCC,0.04
14,UACGUAGGUGGUUUUCCCCUGAUAGUGCUAAGGGGGCCUGUAUGUUCGGACUGGGCAGAGCUCAACACAGCGUGGCAAAGUGGCUGUGGCUAGACUGCCUCUCUGGAUUCCUCGUCACUCGGCUGGGCAUCUCUGAGAGAAAUGCC,1.79
15,UACGUAGGUGGUCUUCCCCCGAUAGUGCUGAGGGGGCCUGGAAGUUUGGACUGGGCAGAGCUCAACACAGCGUGGCAAAGUGGCUGUGGCUAGACUGCCUCUCUGGAUUCCUCGUCACUCAGCAGGACUUCUCUGGGAGAAAUGCC,0.57
16,UACGUAGGUGGUUUUCCCCUGAUAGUGCUAGGGGGGCCAGGAAGUUUGGACGGGGCAGAGCUCAACACAGCGUGGCAAAGUGGCUGUGGCUAGACUGCCUCUCUGGAUUCCUCGUCACUCAGCAGGGCAUCUCUGAGAGAAAUGCC,1.41
17,UACGUAGGUGGUUUUCCCCUGAUAGUGCUAAGGGGGCCCGGAAGUUUGGACUGGGCAGAGCUCAAAACAGCGUGGCAAGGUGGCUGUGGCUAUACUGCCUCUCUGGAUUCCUCGUCACUCAGCAGGGCAUCUCUGAGAGAAGUGCC,0.03
18,CACGUAGGUGGUUUUCCCCUGAUAGUGCUAAGGGGGCCUGGAAAUUUGGACUGGGCAGAGCUCAACACAGCGUGGCGAAGUGGCUGUGGCAAGACUGCCUCUCUGGAUUCCUCGUCACUCAGCAGGGCAUCUCUGAGAGAAAUGCC,0.41
19,UACGUAGGUGGUUUUCCCCUGAUAGUGCUAUGGGGGCCUGGAAGUUUGGACUGGGCAGAGCUCAACCCAGCGUGGCAAAGUGGCAGUGGCUAGACUGCCUCUCAGGAUUCCUCGUCACUCAGCAGGGCAUCUCUGAGAGGAAUGCC,0
20,UACGUAGGUGGUUUUCCCCUGAUAGUGCUAAGGGGGCCUGGAAGUUCGGACUGGGCAGUGCGCAACACAGCGUGGCAAAGUGGCUGUGGCUAGACUGCCUCUCUGGAUUCCUCGUCACUCAGCAGGGCAUCUCUGAGAGAAAUGCC,0.05

row,Variant,self-cleavage
1,UAUGUAGGUGGUUUUCCCCUGAUAGUGCUAAGGGGGCCUGGAAGUUCGGACUGGGCAGAGCUCAACACAGCGUGGCAAAGUGGCUGUGGCUAGACUGCCCCUCUGGAUUCCUCGUCACUCAGCAGGGCAUCUCUGAGAGAAAUGCC,1.31
2,UACGUAGGUGGUUUUCCCCUGAUAGUGCUAAGGGGGCCUGGAAGUUUGGACUGGGCAGAGCUCAACACAGCGUGGCAAAGUGGCUGUGGCUAGACCGCCUCUCUGGAUUCCUCGUCACUCAGCAGGGCUUCUCAGAGAGAAAUGCC,0.06
3,UACGUGGGAGGUUUUCCCCUGAUAGUGCUAAGGGGGCCUGGAAGUUUGUACUGGGCAGAGCCCAACACAGCGUGGCAAAGUGGCUGUGGCUAGACUGCCUCUCUGGAUUCCUCGUCACUCCGCAGGGCAUCUCUGAGAGAAAUGCC,0.16
4,UACGUAGGUGGUUUUCCCCUGAUAGUGCUAGGGGGGCCUGGAAGUUUGGACUGGGCAGAGCUCAACACAGCGUGGCAAAGUGGCUGAGGCUAGGCUGCCUCUCUGGAUUCCUCGUCACUCAGCAGGGCUUCUCUGAGAGAAAUGCC,0.04
5,UAUGUAGGUGGUUUUCCCCUGAUAGCGCUAAGGGGGCCUGGAAGAUUGGACUGGGCAGAGCUCUACACAGCGUGGCAAAGUGGCUGUGGCUAGACUACCUCUCUGGAUUCCUCGUCACUCAGCAGGGCAUCUCUGAGAGAAAUGCC,0.08
6,UACGUAGGUGGCUCUCCCCUGAUAGUGCUAAGGGGGCCUGGAAGUUUGGGCUGGGCAGAGCUCAACACAGCGAGGCAAAGUGGCUGUGGCUAGACUGCCUCUCUGGAUUCCUCGUCACUCAGCAGGGCAUCUCUGGGAGAAAUGCC,0.66
7,UACGUAGGUGGUUUUCCCCUGAUAGUGCUAAGGGGGCCUGGAAGUUUGGACUGGGCAGAGCUCAACACAGCGUGGCGAAGUGGCUGUGGCUAGACUGCCUCUCAGGAUUCCUCGCCACUCAGCAGGGCAUCUCUGAGAGAAAUGCC,1.31
8,UACGUAGGUGGUUUUCCCCUGAUAGUGCUAAGGGGGCCUGGAAGUUUGGACUGGGCAGAGCUCAACACAGCGUGGCAAAGCGGCUGUGGCUAGACUGCCUCUCCGGAUUCCUCGUCACUCAGCAGGGCGUCUCUGAGAGAAAUGCC,0
9,UACGUAGGUGGUUUUCCCCUGAUAGUGCUAAGGGGGCCUGGAAGUUUGGACUGGGCAGAGCUCAACACAGCGUGGCGAAGAGGCUGUGGCUAGACAGCCUCUCUGGAUUCCUCGUCACUCAGCAGGGCAUCUCUGAGAGAAAUGCC,0
10,UACGCAGGUGGCUUUCCCCUGAUAGUGCUAAGGGGGCCUGGAAGUUUGGACUGGGCAGAGCUCAACACAGCGUGGCAAAGUGGCUGUGGCUAGACUGCCUCUCUGGACUCCUCGUCACUCAGCAGGGCAUCUCUGAGAGAAGUGCC,1.67
11,UACGUAAGUGGUUUUCCCCUGAUAGUGCUAAGGGGGCCUGGAAGUUUGGACUGGGCAGAGCUCAACACAGCGUGGCAAAGUGGCUGUGGCUAGACUGCCUCUCUGGAUUCCUCGUCACUCAGCAGGGCAUCUCUGAGAGGAACGCC,1.08
12,UACGUAGGUGGUCUUCCCCUGAUAGUGCUAAGGGGGCCUGGAAGUUUGGACUGGGCAGAGCUCAACACAGCGUGGCGAAGUGGCUGUGGCUAGACUGCCUCUCUGGAUUCCGUGUCACUCAGCAGGGCAUCUCUGAGAGAAAUGCC,0.94
13,UACGUAGGUGGUCCUCCCCUGAUAGUGCUAAGGGGGCCUGGAAGUUUGGACUGGGCAGAGCUCAACACAGCGUGGCAAAGUGGCUGUGGCUAGACUGCCUCUCUGGAUUCCUCGGCACUCAGCAGGGCAUCUCUGAGAGAAAUGCC,0.9
14,UACGUAGGUGGUUUUCCCCUAAUAGUGCUAAGGGGGCCAGGAAGUUUGGACUGGGCAGAGCCCAACACAGCGUGGCAAAGUGGCUGUGGCUAGACUGCCUCUCUGGAUUCCUCGUCACUCAGCAGGGCAUCUCUGAGAGAAAUGCC,0.06
15,UACGCAGGUGGUUUUCCCCUGAUAGUGCUAAGGGGGCCUGGAAGUUUGGACUGGGCAGAGCACAACACAGCGUGGCAAAGUGGCUGUGGCUAGACUGCCUCUCUGGAUUCCUCGUCACUCAGCAGGGCAUCUCAGGGAGAAAUGCC,0
16,UACGUAGGUGGUUUUCCCCUGAUAGUGCUAAGGGGGCCUGGAAGUUUGGACUGGGCAGAGCUCAACACAGCGUGGCAAAGUGGCUGUGGCUAGACCGCCUCUCUGGUUUCCUCGUCACUCAGCAGGGCAUCUCUGAGAGAAGUGCC,0
17,UACGUAGGUGGCUUUCCCCUGAUAGUGCUAAGGGGGCCUGUAAGUUUGGACUGGGCAGAGCUCAACACAGCGUGGCAAAGUGGCUGUGGCUAGACUGCCUCUCUGGACUCCCCAUCACUCAGCAGGGCAUCUCUGAGAGAAAUGCC,1.72
18,UACGUAGGUGGUUUUCCCCUGAUAGUGCUAAGAGGGCCUGGAAGUUUGGACUGGGCAGAGCUCAACACAGCGUGGCAAAGAGGCUGUGGCUAGACUGCCUCUCUGGAUUCCUCGCCACUCAGCAGGGCAUCUCUGAGAGAAAUGCC,1.76
19,UACCUAGGUGGUUUUCCCCUGAUAGUGCUAAGGGGGCCUGGAAGUUUGGACUGGGCAGAGCUCGACACAGCGUGGCAAUGUGGCUGUGGCUAGACUGCCUCUCUGGAUUCCUCGUCACUCAGCAGGGCAUCUCUGAGAGAAAUGCC,0.46
